Source: PubChem BioAssay AID652104 (National Center for Advancing Translational Sciences (NCATS), 2013)
In all, about 410,000 compounds went through this assay and about 7,200 (1.8%) were called active. Inconclusive results, whose numbers are uncertain, are shown with a selection of clear calls. The call rests on the fitted dose curve; in most records, active means well fitted activation curve with a large enough effect; inconclusive means small, poorly fitted or top-dose-only effect, or another doubt; inactive means no such curve, though single readings can be large or run the other way. Potencies of inconclusive entries are left out as doubtful fits.

Assay: qHTS of TDP-43 Inhibitors; further: nearly all actives have a fitted effect of over 50% in size; on growth rescue (activation): % of control where 0% means no effect
Details: TDP-43 expressing yeast growth rescue, BacTiter-Glo, 24 h; growth rescue (activation): at 46.1 µM (top of the series) unless noted
Procedure, shortened: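 Growth rescue of TDP-43-toxic yeast measured as ATP luminescence (BacTiter-Glo). Cells grown to mid-log in raffinose, induced in galactose at OD600=0.02, exposed to compound 24 hr at 30 deg C.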
Potency means the concentration at half of the fitted maximal effect; tags describe the fitted curve by direction and shape.

SMILES	Potency	growth rescue (activation)
CCCCCOC(=O)Cc1c(O)c2ccccc2[nH]c1=O	inconclusive [activator, partial curve]	–
COc1ccc(-c2nc3scc(CCNC(=O)c4cccc(Br)c4)n3n2)cc1	inconclusive [activator, single point]	–
OC[C@H]1O[C@H](OC[C@H]2O[C@H](OC[C@H]3O[C@H](O[C@]4(CO)O[C@H](CO)[C@@H](O)[C@@H]4O)[C@H](O)[C@@H](O)[C@@H]3O)[C@H](O)[C@@H](O)[C@H]2O)[C@H](O)[C@@H](O)[C@H]1O	inconclusive [activator, partial curve, poor fit]	–
N#Cc1c(Nc2ccccc2C(F)(F)F)s[nH]c1=O	inconclusive [activator, single point]	–
O=[N+]([O-])c1ccc(NC(=S)N2CCc3ccccc32)cc1	inconclusive [activator, single point]	–
CCc1nc2nc(C)c(NS(=O)(=O)c3ccc(C)cc3)c(=O)n2[nH]1	inconclusive [activator, full curve, poor fit]	–
O=C(Cc1ccc(Cl)c(Cl)c1)OCC(=O)c1ccc[nH]1	inconclusive [activator, single point]	–
COc1ccccc1C(=O)NC(=O)CSc1nnc(C)s1	inconclusive [activator, partial curve, poor fit]	–
COc1ccc(-c2csc3ncnc(N4CCN(S(=O)(=O)c5ccc(C(C)=O)cc5)CC4)c23)cc1	inconclusive [activator, single point]	–
O=C1O[C@@H](c2ccc(O)cc2)Cc2cccc(O)c21	inconclusive [activator, partial curve]	–
COc1ccc(CCNC(=O)CCc2ccc(OC)cc2)cc1	inconclusive [activator, single point]	–
CC1CCn2c(nc3cc(C(=O)NCc4ccc(OC(C)C)cc4)ccc32)C1 (configuration not stated)	–	inactive: -1.12%
COc1ccc(/C=C2\N=C(C)OC2=O)cc1[N+](=O)[O-]	–	inconclusive: 54.4% [activator]
O=C(CCCOc1ccc(Cl)cc1Cl)N/N=C/c1ccccc1O	inconclusive [activator, full curve]	–
Cc1cccc(-n2c(=O)c3ccccc3n(Cc3ccccc3)c2=O)c1	active: 22.4 µM	–
COc1ccc(-c2c(C)nn3c(C(F)(F)F)cc(-c4ccccc4)nc23)cc1	inconclusive [activator, full curve, poor fit]	–
COc1cc2c(cc1OC)C(C)N(C(=O)c1cc3c(C)cc(C)cc3[nH]1)CC2 (configuration not stated)	inconclusive [activator, single point]	–
Cc1cc(C)cc(NC(=O)Cc2c(C(=O)O)c(C)cn2C)c1	–	inactive: 17.8%
Cn1nc(C(=O)NCc2ccccc2Cl)c2c1-c1ccccc1S(=O)(=O)C2	inconclusive [activator, partial curve]	–
COc1ccc(CS(=O)(=O)/C(Cl)=C(/Cl)C(=O)Nc2ccc(OC)nc2)cc1	active: 12.6 µM	–
Cc1cccc(CNC(=O)c2ccc3oc(=O)n(Cc4ccccc4)c3c2)c1	inconclusive [activator, partial curve]	–

SMILES	Potency	growth rescue (activation)
COc1ccc(C(=O)Nc2nnc(SCc3cc(=O)n4cccc(C)c4n3)s2)cc1	–	inactive: -0.162%
O=C(/C=C/c1cccc([N+](=O)[O-])c1)NCCSCc1c(Cl)cccc1Cl	inconclusive [activator, single point]	–
CCOc1ccc(-c2nnc(-c3snc(-c4ccc(F)cc4)c3N=CN(C)C)o2)cc1	–	inactive: -8.51%
CC1SCCN1S(=O)(=O)c1ccc2ccccc2c1 (configuration not stated)	inconclusive [activator, single point]	–
CCN(CC(=O)Nc1ccc(OC)cc1)C(=O)CSCc1ccc(C)cc1	inconclusive [activator, single point]	–
COC(=O)c1sc(=S)sc1C(=O)OC	active: 12.6 µM	–
Cc1cccc(NNC(=S)Nc2c(C)cccc2C)c1	inconclusive [activator, partial curve]	–
Cc1ccc(C(=O)/C=C/N(C)C)o1	inconclusive [activator, single point]	–
CCOC(=O)C1=C(C)NC(C)=C(C(=O)OC)C1c1cccc([N+](=O)[O-])c1 (configuration not stated)	active: 35.5 µM	–
C[C@@H]1CN([C@@H](C)CO)C(=O)c2cc(NC(=O)c3ccccc3)ccc2O[C@@H](C)CCCCO[C@@H]1CN(C)S(=O)(=O)c1ccc(F)cc1	–	inactive: 0%
Clc1nnc2ccc(-c3ccccc3)nn12	–	inactive: 17.2%
COc1ccc(Nc2cc(C)c3cc(NC(=O)Cc4ccc(Cl)cc4)ccc3n2)cc1	inconclusive [activator, partial curve]	–
S=c1[nH]cc2cnccn12	–	inactive: 5.45%
CCOC(=O)c1cc(C)n(-c2ccc(OC)c(OC)c2)c1C	inconclusive [activator, partial curve]	–
Cc1ccc(NC(=O)c2sccc2C)cc1S(=O)(=O)N(C)C	inconclusive [activator, full curve, poor fit]	–
CC(=O)Nc1ccc(S(=O)(=O)NCC2CCC(C(=O)NCCN(CC(C)C)CC(C)C)CC2)cc1 (configuration not stated)	–	inactive: 1.63%
COc1ccc(C/C(N)=N/OC(=O)CCc2ccccc2)cc1	inconclusive [activator, single point]	–
COc1ccc(C2=NC(C)(C)N(CC(=O)Nc3cccc(C)c3)C2=O)cc1	inconclusive [activator, partial curve, poor fit]	–
Cn1c(=O)[nH]c2cc(-c3noc(-c4ccc(C#N)cc4)n3)ccc21	inconclusive [activator, full curve, poor fit]	–
C/C(=N\OC(=O)Nc1ccc(Cl)cc1)c1ccc(F)c(F)c1	inconclusive [activator, single point]	–
O=C(O)c1ccccc1NSc1ccccc1[N+](=O)[O-]	inconclusive [activator, partial curve]	–
